The target of one assay is Ror1-mCherry (human) (UniProt Q01973). Nature of the assay: co-IP; whole-cell lysates of 293T cells expressing Flag-Rif with Ror1-mCherry or Ror2-mCherry; IP with anti-RFP antibody (recognizes mCherry), Western blotting; lysis buffer 50 mM Tris-HCl pH 7.4, 0.5% Nonidet P-40, 150 mM NaCl, 5 mM EDTA.
The target in the next assay is Ror2-mCherry (human) (UniProt Q01974). The assay is described as above.
Assay [1] concerns the target GST-mDia1-Rho-binding domain (RBD) fusion protein (mouse) (UniProt O08808). Nature of the assay: pull-down; effector pull-down (affinity precipitation) with 20 ug of GST-mDia1-RBD from lysates of 293T cells expressing Rif WT, QL or TN; only the target purified.
For assay [2] the target is unchanged. Nature of the assay: pull-down; effector pull-down (affinity precipitation) with 20 ug of GST-mDia1-RBD or GST-rhotekin-RBD from PC9 lysates, endogenous GTPases; also after Ror1 knockdown (level of GTP-bound Rif unaltered); only the target purified.
Assay [3] has as its target endogenous Ror1 (human (endogenous in PC9, HCC827, A549)) (UniProt Q01973). In words: co-IP; endogenous proteins; whole-cell lysates of PC9, HCC827 and A549 cells; IP with anti-Ror1 antibody or isotype-matched control immunoglobulin G, Western blotting. Background: Immunoblotting shows a protein as a band on a membrane.

Sequences of proteins named here, by UniProt entry; tags and fusion partners are left off. Residues count along the entry.
UniProt Q01973, residues 30-937: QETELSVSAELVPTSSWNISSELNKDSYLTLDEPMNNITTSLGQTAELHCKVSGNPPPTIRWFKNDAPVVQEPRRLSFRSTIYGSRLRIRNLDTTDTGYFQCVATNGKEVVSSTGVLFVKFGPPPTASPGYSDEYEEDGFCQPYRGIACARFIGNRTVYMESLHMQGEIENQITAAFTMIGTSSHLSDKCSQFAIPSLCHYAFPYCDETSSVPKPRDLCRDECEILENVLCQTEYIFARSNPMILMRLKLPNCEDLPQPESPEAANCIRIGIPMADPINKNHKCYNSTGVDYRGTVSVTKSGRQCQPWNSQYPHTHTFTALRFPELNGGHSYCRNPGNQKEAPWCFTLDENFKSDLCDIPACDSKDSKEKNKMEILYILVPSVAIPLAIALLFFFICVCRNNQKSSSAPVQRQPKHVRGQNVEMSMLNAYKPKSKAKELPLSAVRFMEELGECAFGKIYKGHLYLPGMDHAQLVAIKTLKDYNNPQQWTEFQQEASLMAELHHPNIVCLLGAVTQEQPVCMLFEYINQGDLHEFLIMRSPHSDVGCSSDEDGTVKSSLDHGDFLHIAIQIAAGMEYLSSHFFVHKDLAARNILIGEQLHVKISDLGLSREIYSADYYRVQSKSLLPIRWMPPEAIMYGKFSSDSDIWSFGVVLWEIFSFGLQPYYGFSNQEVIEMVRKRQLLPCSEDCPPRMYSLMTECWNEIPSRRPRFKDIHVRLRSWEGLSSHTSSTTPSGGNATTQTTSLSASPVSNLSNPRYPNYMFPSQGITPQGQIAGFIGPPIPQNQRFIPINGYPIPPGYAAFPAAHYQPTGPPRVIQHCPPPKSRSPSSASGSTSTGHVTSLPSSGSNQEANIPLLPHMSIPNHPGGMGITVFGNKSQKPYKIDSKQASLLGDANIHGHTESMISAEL
UniProt Q01974, residues 34-943: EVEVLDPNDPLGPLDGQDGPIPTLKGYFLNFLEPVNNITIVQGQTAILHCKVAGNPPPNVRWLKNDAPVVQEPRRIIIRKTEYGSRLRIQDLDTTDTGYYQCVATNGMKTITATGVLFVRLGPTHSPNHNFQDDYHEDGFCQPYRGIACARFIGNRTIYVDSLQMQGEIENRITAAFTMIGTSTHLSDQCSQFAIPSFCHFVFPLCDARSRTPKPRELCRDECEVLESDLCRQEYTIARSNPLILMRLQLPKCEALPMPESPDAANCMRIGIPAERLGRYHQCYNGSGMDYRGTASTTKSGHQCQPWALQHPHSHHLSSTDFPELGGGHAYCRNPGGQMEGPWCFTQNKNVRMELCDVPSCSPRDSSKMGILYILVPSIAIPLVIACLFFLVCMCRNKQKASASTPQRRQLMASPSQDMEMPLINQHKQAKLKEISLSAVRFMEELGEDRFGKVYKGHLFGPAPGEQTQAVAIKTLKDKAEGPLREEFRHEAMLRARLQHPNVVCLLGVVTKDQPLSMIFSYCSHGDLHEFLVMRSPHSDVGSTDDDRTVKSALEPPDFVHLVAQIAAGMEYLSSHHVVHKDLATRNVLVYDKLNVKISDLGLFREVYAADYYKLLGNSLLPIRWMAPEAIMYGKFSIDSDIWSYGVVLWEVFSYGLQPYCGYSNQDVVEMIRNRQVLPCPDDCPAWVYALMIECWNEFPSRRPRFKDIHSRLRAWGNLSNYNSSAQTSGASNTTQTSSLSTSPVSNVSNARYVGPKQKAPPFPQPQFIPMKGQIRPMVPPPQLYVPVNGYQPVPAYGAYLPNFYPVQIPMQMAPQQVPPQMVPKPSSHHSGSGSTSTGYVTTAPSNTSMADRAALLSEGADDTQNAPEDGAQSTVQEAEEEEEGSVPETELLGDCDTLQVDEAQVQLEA
UniProt O08808, residues 82-379: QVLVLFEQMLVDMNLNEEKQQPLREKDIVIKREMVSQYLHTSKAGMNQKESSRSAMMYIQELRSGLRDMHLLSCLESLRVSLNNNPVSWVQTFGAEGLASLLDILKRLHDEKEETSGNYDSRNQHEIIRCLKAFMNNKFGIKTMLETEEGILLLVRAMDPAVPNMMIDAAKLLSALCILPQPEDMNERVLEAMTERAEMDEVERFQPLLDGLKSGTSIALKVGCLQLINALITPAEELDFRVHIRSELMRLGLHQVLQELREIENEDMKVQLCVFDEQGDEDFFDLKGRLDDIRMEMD

Results are given in words; binding and its absence hold for the method and conditions named. Binding seen in cells or lysates may run through a third protein. Some binding calls cover weakened binding; strength is not graded here. For some of these results: Sequences can lack the tags named with a protein.

Experimental findings from article PMC10570955 are described below.

B1: Flag-Rif (Rho in filopodia, RhoF), wild type (protein, UniProt Q9HBH0 1-211)
chain: MDAPGALAQTAAPGPGRKELKIVIVGDGGCGKTSLLMVYSQGSFPEHYAPSVFEKYTASVTVGSKEVTLNLYDTAGQEDYDRLRPLSYQNTHLVLICYDVMNPTSYDNVLIKWFPEVTHFCRGIPMVLIGCKTDLRKDKEQLRKLRAAQLEPITYMQGLSACEQIRAALYLECSAKFRENVEDVFREAAKVALSALKKAQRQKKRRLCLLL
In the case of B1, the binding result in the assay with Ror1-mCherry (human) and in the assay with Ror2-mCherry (human) was “binds” in each case.

B2: WT Rif expressed in 293T cells (effector pull-down) (protein, UniProt Q9HBH0 1-211)
chain: MDAPGALAQTAAPGPGRKELKIVIVGDGGCGKTSLLMVYSQGSFPEHYAPSVFEKYTASVTVGSKEVTLNLYDTAGQEDYDRLRPLSYQNTHLVLICYDVMNPTSYDNVLIKWFPEVTHFCRGIPMVLIGCKTDLRKDKEQLRKLRAAQLEPITYMQGLSACEQIRAALYLECSAKFRENVEDVFREAAKVALSALKKAQRQKKRRLCLLL
Regarding B2, the binding entry in assay [1] is “binds”.

B3: Rif(TN), GDP-bound form, expressed in 293T cells (protein, UniProt Q9HBH0 1-211)
chain: MDAPGALAQTAAPGPGRKELKIVIVGDGGCGKNSLLMVYSQGSFPEHYAPSVFEKYTASVTVGSKEVTLNLYDTAGQEDYDRLRPLSYQNTHLVLICYDVMNPTSYDNVLIKWFPEVTHFCRGIPMVLIGCKTDLRKDKEQLRKLRAAQLEPITYMQGLSACEQIRAALYLECSAKFRENVEDVFREAAKVALSALKKAQRQKKRRLCLLL
With B3, in assay [1], the binding entry is recorded as “no binding”.

B4: Rif(QL), constitutively active GTP-bound form, expressed in 293T cells (protein, UniProt Q9HBH0 1-211)
chain: MDAPGALAQTAAPGPGRKELKIVIVGDGGCGKTSLLMVYSQGSFPEHYAPSVFEKYTASVTVGSKEVTLNLYDTAGLEDYDRLRPLSYQNTHLVLICYDVMNPTSYDNVLIKWFPEVTHFCRGIPMVLIGCKTDLRKDKEQLRKLRAAQLEPITYMQGLSACEQIRAALYLECSAKFRENVEDVFREAAKVALSALKKAQRQKKRRLCLLL
B4: the binding entry in assay [1] was “binds”.

B5: endogenous Rif (Rho in filopodia, RhoF) (protein, UniProt Q9HBH0 1-211)
chain: MDAPGALAQTAAPGPGRKELKIVIVGDGGCGKTSLLMVYSQGSFPEHYAPSVFEKYTASVTVGSKEVTLNLYDTAGQEDYDRLRPLSYQNTHLVLICYDVMNPTSYDNVLIKWFPEVTHFCRGIPMVLIGCKTDLRKDKEQLRKLRAAQLEPITYMQGLSACEQIRAALYLECSAKFRENVEDVFREAAKVALSALKKAQRQKKRRLCLLL
As to B5, the binding result in assay [2] and in assay [3] was “binds” throughout.
